These are yes or no findings as the source states them, for the method shown. For some of these results: Binding seen in cells or lysates may run through a third protein. Some entries that bind do so weakly or less than the wild type. Where a sequence is shown, tags or fusion partners need not be part of it.
Experiments:
[1] = molecular target: T1, mature EnvC (murein hydrolase activator), non-tagged, co-expressed for crystallisation (E. coli) (UniProt P37690); assay: crystal structure; X-ray, 2.1 Å, space group P2(1)2(1)2(1); His-tagged FtsX periplasmic domain and non-tagged EnvC coexpressed and copurified by Ni-IMAC; molecular replacement; both purified
T1 sequence: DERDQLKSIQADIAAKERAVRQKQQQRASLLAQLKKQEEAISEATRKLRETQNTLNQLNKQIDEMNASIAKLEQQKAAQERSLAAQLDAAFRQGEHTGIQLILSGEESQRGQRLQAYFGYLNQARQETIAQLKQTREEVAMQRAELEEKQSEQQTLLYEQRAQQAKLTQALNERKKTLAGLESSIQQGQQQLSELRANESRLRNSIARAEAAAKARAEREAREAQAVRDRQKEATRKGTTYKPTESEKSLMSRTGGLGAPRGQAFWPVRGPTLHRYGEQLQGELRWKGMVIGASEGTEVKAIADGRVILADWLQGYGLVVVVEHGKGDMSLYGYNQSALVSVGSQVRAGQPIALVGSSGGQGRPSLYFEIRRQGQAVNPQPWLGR

[2] = molecular target: T2, EnvC (35 to 419), bacterial two-hybrid fusion (E. coli) (UniProt P37690); assay: two-hybrid; bacterial adenylate cyclase two hybrid (BACTH) system; E. coli BTH101 cells grown on IPTG/X-gal LB plates at room temperature; coloration followed over a time course
T2 sequence: T1 sequence

[3] = molecular target: T3, EnvC 222 to 419 (lacking the coiled coil domain, retaining the restraining arm), bacterial two-hybrid fusion (E. coli) (UniProt P37690); assay: as above
T3 sequence: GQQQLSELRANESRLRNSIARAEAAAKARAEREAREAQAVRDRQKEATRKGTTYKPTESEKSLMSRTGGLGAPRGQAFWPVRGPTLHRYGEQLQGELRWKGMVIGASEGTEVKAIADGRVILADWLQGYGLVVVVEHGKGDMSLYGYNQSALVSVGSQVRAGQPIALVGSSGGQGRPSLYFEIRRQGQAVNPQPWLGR

[4] = molecular target: T4, EnvC LytM domain (residues 278 to 419), bacterial two-hybrid fusion (E. coli) (UniProt P37690); assay: as above
T4 sequence: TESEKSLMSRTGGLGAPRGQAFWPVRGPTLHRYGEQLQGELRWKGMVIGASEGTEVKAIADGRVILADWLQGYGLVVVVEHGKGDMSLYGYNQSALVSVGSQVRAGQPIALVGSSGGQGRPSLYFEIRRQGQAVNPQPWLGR

[5] = molecular target: T5, full-length NlpD (murein hydrolase activator), bacterial two-hybrid fusion (UniProt P0ADA3); assay: as above
T5 sequence: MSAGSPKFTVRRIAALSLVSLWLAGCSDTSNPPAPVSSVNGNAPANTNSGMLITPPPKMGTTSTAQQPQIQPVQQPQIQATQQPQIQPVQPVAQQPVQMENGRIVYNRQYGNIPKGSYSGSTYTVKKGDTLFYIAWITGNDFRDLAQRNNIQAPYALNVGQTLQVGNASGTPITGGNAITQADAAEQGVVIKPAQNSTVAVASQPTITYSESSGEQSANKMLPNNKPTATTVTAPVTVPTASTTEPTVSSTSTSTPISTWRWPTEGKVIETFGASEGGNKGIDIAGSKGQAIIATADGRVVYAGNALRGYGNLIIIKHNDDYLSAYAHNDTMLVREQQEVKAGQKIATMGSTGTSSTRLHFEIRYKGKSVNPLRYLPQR

[6] = molecular target: T6, His-tagged EnvC LytM domain (copurification) (E. coli) (UniProt P37690); assay: pull-down; Ni-IMAC copurification; only the EnvC LytM domain is His-tagged; SDS gel of the copurified complexes
T6 sequence: T4 sequence

B1: FtsX periplasmic domain, histidine-tagged, co-expressed for crystallisation (domain or fragment, E. coli)
chain: QITVYLQKTLDDDAAAGVVAQLQAEQGVEKVNYLSREDALGEFRNWSGFGGALDMLEENPLPAVAVVIPKLDFQGTESLNTLRDRITQINGIDEVRMDDS
notes: FtsX periplasmic domain (between the first and second transmembrane helix), E. coli; The two-hybrid construct of the same domain is residues 110 to 209; also called FtsX I; FtsX II; source: E. coli C43(DE3), coexpressed with non-tagged EnvC from a pETDuet1-based vector, copurified by Ni-IMAC
**Q.** How did the binding [1] turn out when B1 was run?
**A.** The binding was “binds”.

B2: AmiB, bacterial two-hybrid fusion (enzyme, UniProt P26365 1-445)
chain: MMYRIRNWLVATLLLLCTPVGAATLSDIQVSNGNQQARITLSFIGDPDYAFSHQSKRTVALDIKQTGVIQGLPLLFSGNNLVKAIRSGTPKDAQTLRLVVDLTENGKTEAVKRQNGSNYTVVFTINADVPPPPPPPPVVAKRVETPAVVAPRVSEPARNPFKTESNRTTGVISSNTVTRPAARATANTGDKIIIAIDAGHGGQDPGAIGPGGTREKNVTIAIARKLRTLLNDDPMFKGVLTRDGDYFISVMGRSDVARKQNANFLVSIHADAAPNRSATGASVWVLSNRRANSEMASWLEQHEKQSELLGGAGDVLANSQSDPYLSQAVLDLQFGHSQRVGYDVATSMISQLQRIGEIHKRRPEHASLGVLRSPDIPSVLVETGFISNNSEERLLASDDYQQQLAEAIYKGLRNYFLAHPMQSAPQGATAQTASTVTTPDRTLPN
**Q.** How did the binding [2] turn out when B2 was run?
**A.** The binding was “no binding”.

**Q.** What about the binding [3] of the same binder?
**A.** Its binding is “no binding”.

**Q.** What about the binding [4] of the same binder?
**A.** Its binding is “binds”.

**Q.** What about the binding [5] of the same binder?
**A.** Its binding is “no binding”.

B3: AmiA construct, not His-tagged (copurification) (enzyme, UniProt P36548 35-289)
chain: KDELLKTSNGHSKPKAKKSGGKRVVVLDPGHGGIDTGAIGRNGSKEKHVVLAIAKNVRSILRNHGIDARLTRSGDTFIPLYDRVEIAHKHGADLFMSIHADGFTNPKAAGASVFALSNRGASSAMAKYLSERENRADEVAGKKATDKDHLLQQVLFDLVQTDTIKNSLTLGSHILKKIKPVHKLHSRNTEQAAFVVLKSPSVPSVLVETSFITNPEEERLLGTAAFRQKIATAIAEGVISYFHWFDNQKAHSKKR
**Q.** With B3 as the binder, how does the binding [6] read?
**A.** The binding was “binds”.

B4: AmiB construct, not His-tagged (copurification) (enzyme, UniProt P26365 23-445)
chain: ATLSDIQVSNGNQQARITLSFIGDPDYAFSHQSKRTVALDIKQTGVIQGLPLLFSGNNLVKAIRSGTPKDAQTLRLVVDLTENGKTEAVKRQNGSNYTVVFTINADVPPPPPPPPVVAKRVETPAVVAPRVSEPARNPFKTESNRTTGVISSNTVTRPAARATANTGDKIIIAIDAGHGGQDPGAIGPGGTREKNVTIAIARKLRTLLNDDPMFKGVLTRDGDYFISVMGRSDVARKQNANFLVSIHADAAPNRSATGASVWVLSNRRANSEMASWLEQHEKQSELLGGAGDVLANSQSDPYLSQAVLDLQFGHSQRVGYDVATSMISQLQRIGEIHKRRPEHASLGVLRSPDIPSVLVETGFISNNSEERLLASDDYQQQLAEAIYKGLRNYFLAHPMQSAPQGATAQTASTVTTPDRTLPN
**Q.** How did the binding [6] turn out when B4 was run?
**A.** The binding was “binds”.
